# Source: the supplement of paper PMC3334620
# The full ranking holds about 33,000 sequences; the median of “E-score (-0.5 to 0.5)” is about -0.012, and the highest 2% start at about 0.27. Some of the results follow.
# Molecular target: T1, Vhr1 (UniProt P40522)
# T1 sequence: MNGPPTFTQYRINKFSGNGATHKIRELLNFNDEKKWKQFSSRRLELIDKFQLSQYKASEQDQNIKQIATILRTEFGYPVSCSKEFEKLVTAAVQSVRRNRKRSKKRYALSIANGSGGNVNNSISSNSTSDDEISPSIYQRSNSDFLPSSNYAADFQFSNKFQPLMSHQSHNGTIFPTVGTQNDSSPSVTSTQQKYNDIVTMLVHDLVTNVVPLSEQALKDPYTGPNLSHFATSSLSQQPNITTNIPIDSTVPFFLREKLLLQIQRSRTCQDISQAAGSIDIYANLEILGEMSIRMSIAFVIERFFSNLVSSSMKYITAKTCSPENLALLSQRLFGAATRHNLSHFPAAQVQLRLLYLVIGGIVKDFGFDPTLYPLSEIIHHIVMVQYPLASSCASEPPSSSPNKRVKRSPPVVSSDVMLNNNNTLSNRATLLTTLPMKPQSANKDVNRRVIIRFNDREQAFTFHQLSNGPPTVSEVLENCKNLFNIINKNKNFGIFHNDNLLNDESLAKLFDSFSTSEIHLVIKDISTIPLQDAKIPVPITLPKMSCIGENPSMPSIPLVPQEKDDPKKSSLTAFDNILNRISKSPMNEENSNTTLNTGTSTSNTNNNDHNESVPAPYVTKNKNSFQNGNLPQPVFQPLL
# Test: PBM E-score (8-mer binding enrichment) (E-score (-0.5 to 0.5)); higher = stronger / more preferred TF binding; most listed sequences are background and not binding sites
# Conditions: protein concentration: 200 nM; construct: GST-full length
# Protocol: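 Universal 'all 10-mer' protein binding microarrays (Agilent AMADID 015681) probed with GST-tagged S. cerevisiae TFs (full-length or DBD) made by in vitro transcription/translation (PURExpress), about 100-200 nM. Bound TF was detected with fluorescent anti-GST. Each ungapped 8-mer (which stands for itself and its reverse complement) is scored by the PBM enrichment score (E-score), a modified Wilcoxon-Mann-Whitney statistic from -0.5 to +0.5, computed with the Universal PBM Analysis Suite. Scale: above 0.35 generally sequence-specific binding.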
row,Sequence,PBM E-score
1,GAGCTGCC,-0.0317
2,CGGAAAGA,-0.074
3,CCAAACTA,0.108
4,AACGAACT,-0.161
5,GACACTGC,0.144
6,CCATAACC,0.0967
7,AAGGAGCA,-0.156
8,CACAATCC,0.0784
9,CTCGACAG,-0.067
10,ATTTTTAG,-0.224
11,ACTCACGA,0.243
12,CTGGTGTC,0.153
13,ACCTGACA,0.15
14,GGGTGTAC,0.00652
15,ATTACTGG,-0.0353
16,ACTATGTG,0.292
17,GTAGTCGA,0.175
18,AGTACATG,0.084
19,CAGCGGTC,-0.122
20,ACTTCCGG,-0.203
21,AAGGGAGC,-0.00034
22,ACCTGAAA,-0.0389
23,AAGCATGT,0.0488
24,GATAAAGC,-0.216
25,CCCAGTCA,0.151

row,Sequence,PBM E-score
1,CCGGATCC,-0.0685
2,GGAATTGA,-0.0146
3,ACTAATGA,0.198
4,TCCGCTCA,-0.0681
5,ATTGAAAC,-0.00267
6,GGGTTACA,-0.00648
7,ACGTATTA,0.197
8,CACTCGTA,-0.0431
9,ATCCTACC,0.0595
10,CTCGCAGA,-0.0216
11,AGCCGGTG,0.236
12,GAGGGTAC,0.0901
13,AGGTGATC,0.115
14,ACGTCCAT,-0.123
15,AGCGCAGG,-0.0624
16,CGATCACG,0.0834
17,CGGCCACG,-0.175
18,CGCGAAGC,0.0898
19,ACAGTCTC,0.0655
20,CGGACTAC,0.0519
21,CAGCAGGC,0.207
22,ACTTAGAG,-0.256
23,GCACCTTA,-0.146
24,CAGGATTC,0.0395
25,GGCATATA,0.0179

row,Sequence,PBM E-score
1,ACCGCTGA,0.0809
2,AATAAACA,0.169
3,AGGTGGGA,-0.107
4,GATCATGC,0.0952
5,CTAGGGTA,0.0793
6,ACCTCGAC,-0.00505
7,GTTCCAAA,-0.0516
8,AATAGCAG,-0.142
9,AATCGGTG,0.0974
10,ATTCTATC,-0.154
11,AGGACACC,0.0945
12,TAAAAACA,-0.119
13,GCACAGCC,0.106
14,ACCCGATG,0.137
15,GCCGACAA,-0.01
16,ATCTTTGA,-0.148
17,CTTCAGCA,-0.0299
18,GTCTTGAA,-0.106
19,AAGACTAG,-0.209
20,AAGCCCGT,-0.15
21,AATGGGAG,0.199
22,ACGTTGTG,-0.0435
23,CGGCGACA,0.037
24,GAGAAATC,-0.0477
25,ACGTCTCC,0.0523

row,Sequence,PBM E-score
1,GACTCCGA,0.428
2,CCAAACGC,0.11
3,TGGGTAAA,-0.00311
4,CGTCACGC,-0.208
5,AAAACAAA,-0.256
6,GCATTTAC,-0.0932
7,AATAGTTG,0.0903
8,CCCGATCC,-0.0305
9,CAGAGGTC,-0.0609
10,GAGGGCGA,-0.187
11,CTGATTCC,0.261
12,AAGCACGA,0.204
13,CACGCCAC,0.0665
14,CGGATTCC,0.131
15,AGGTAACC,0.0511
16,ACACCAAA,-0.012
17,GCTGGAAC,-0.0431
18,GCACGTGC,-0.0186
19,AAGGCAAG,-0.288
20,AGGAAGTC,-0.0409
21,AAGTCAGT,0.203
22,AGTAATGA,0.172
23,CGCGCCTC,-0.0553
24,GCCCGACC,0.102
25,AGTAGATA,0.153

row,Sequence,PBM E-score
1,CGAGGAGA,-0.22
2,ACAGCGCG,-0.0748
3,ATCTGTGC,0.0213
4,AGCCCACC,-0.0218
5,GGGAAAAA,-0.119
6,ACATTGAT,0.0583
7,AGTTGCCC,-0.00534
8,CTTAAGAC,-0.197
9,CCGCGTAA,-0.179
10,ATGCGCTA,-0.0419
11,TAGTCAAA,0.117
12,CATTGAGC,-0.0604
13,CGATCTTA,-0.228
14,ACGGTCCT,-0.281
15,CGAAGAGC,-0.0701
16,TTACGGAA,-0.0717
17,GTTAGTCA,0.43
18,CACGCAAG,0.0733
19,ACTGCACC,0.108
20,CGGGGACA,-0.0869
21,ATGATGGG,0.0454
22,AGTGCCGG,-0.00074
23,AACCGTGT,0.172
24,ACGAGACG,-0.0734
25,GTTTGCCA,-0.119

row,Sequence,PBM E-score
1,AAACCCAT,0.182
2,CACTAAGC,0.0344
3,AGCTTGAT,0.0462
4,ATAGCAAG,0.161
5,GCGTCAAC,-0.0143
6,AAAATCGA,-0.0133
7,GCGTCTGA,-0.189
8,AAAATCCG,-0.0592
9,ATACTATA,0.189
10,AACGATAT,0.202
11,CGTAAAAG,-0.0723
12,CGATGCGC,0.0647
13,CAACTCAA,0.0938
14,CTGAGGCA,-0.0575
15,CGCATGTC,-0.0108
16,GATACATA,0.332
17,CACGAGAG,0.02
18,AATGGGAT,-0.262
19,GACCTGAA,-0.0627
20,CTAATCTC,0.0261
21,TCAGCTAA,-0.16
22,ACACCAGA,0.218
23,AAACGTTA,-0.052
24,CCAAGGGC,-0.134
25,CGGAACCG,0.0495

row,Sequence,PBM E-score
1,CGTAACCA,-0.12
2,CCTTCCCC,0.0876
3,AATGGACT,-0.0454
4,CTGACTGA,0.13
5,CGATCTCC,-0.0821
6,TTTAGAAA,-0.274
7,CGGTTTAC,-0.111
8,AGTCCTGA,0.114
9,GCTCTATA,-0.15
10,AGAACAAA,0.114
11,CGCGCGAG,0.167
12,CAGCTAGC,-0.071
13,AAAGTGGG,0.112
14,AATTATAT,0.0885
15,CTCCCACC,-0.0567
16,CGTCAGGC,-0.213
17,GAGGCCGA,-0.0911
18,GCGTACGA,0.131
19,TAATAGGA,-0.0104
20,ACTTTATG,0.149
21,CGTCTAGA,-0.194
22,GATGCCAA,-0.101
